Our source for the self-cleavage values is the RNAGym collection of RNA variant scans (doi:10.7554/elife.90254).

Read counts are not given, so values of variants with three or more changes are uncertain.

B1: LINE1-mini (parent)
chain: GGCAGAGCUCAACACAGCGUGGCAAAGUGGCUGUGGCUAGACUGCC

The data set covers variants of B1. In words: self-cleavage, relative activity (ratio to wild type); higher = more cleavage; in vitro, sequencing; the parent is a self-cleaving ribozyme.
In the case of A24G A25U G27C U32A, the self-cleavage came to 0.06.
With A24U U34A C46U, the self-cleavage was 0.02.
In the case of A24C A26U G30C C31G U34G G44U, the self-cleavage came out at 0.02.
For A24G U32C U34G, the self-cleavage is 0.21.
A25G A41U U43G: the self-cleavage amounted to 0.02.
As to A24U G44A C45A, the self-cleavage came out at 0.03.
In the case of A26C C31A C37G A39C, the self-cleavage worked out at 0.
With A24U G27A U34G, the self-cleavage amounted to 0.34.
As to A24U G30U U38C G44U, the self-cleavage is 0.03.
Consider A25C G30U U34C U38A C42A, for which the self-cleavage turned out to be 0.01.
For the variant A25U G35A G40A, the self-cleavage was found to be 0.05.
For A25U U34G C42G the value was 0.01; for A24C U28A C31G, 0.07; for A25U G27C U32G U43C, 0.03.
On to A24G C42U C45G, for which the self-cleavage worked out at 0.06.
Consider A24C G33A G40A, for which the self-cleavage was found to be 0.05.
With A24C G29C U43C, the self-cleavage worked out at 0.04.
As to A25U U28C A41U C45U, the self-cleavage is 0.47.
For A25C G30A C37U, the self-cleavage was determined as 0.02.
For A25C C31G G40U, the self-cleavage turned out to be 0.
Consider A24G G30U G33U C42A, for which the self-cleavage turned out to be 0.01.
Consider C23U U32G G40U, for which the self-cleavage was found to be 0.04.
A24U C31A U43C: the self-cleavage is 0.
As to A25U G27U G44A, the self-cleavage was 0.19.
As to A24G A39C C46G, the self-cleavage was 0.36.
A24U G27U U34C C37A G44A: the self-cleavage worked out at 0.03.
For A25C A26U C37A the value was 0.07; for A24C C37G G44A, 0.04.
In the case of A24G G35C A41C, the self-cleavage was found to be 0.03.
For A25C G27U C45G, the self-cleavage amounted to 1.16.
For A25U C31G U38G U43G the value was 0.06; for A24G G27U U34A, 0.06; for A24U G29U U34C, 0.08.
With A25U G40U C45U, the self-cleavage was found to be 0.04.
In the case of A25U G30A U38A, the self-cleavage was 0.71.
Turning to A25G A26G G29A, the self-cleavage stood at 0.51.
Turning to A24U G30U G44A, the self-cleavage is 0.08.
As to C23U U34A A39G, the self-cleavage amounted to 0.23.
Regarding A24U C42U C45U, the self-cleavage came out at 0.56.
As for A24U A41C U43C, the self-cleavage amounted to 0.17.
For A24U U32C G36A the value was 0.08; for A25U G40C U43A, 0.01; for A24C G27A C37A, 0.01.
A25C U28C C31G C46U: the self-cleavage was determined as 0.04.
A25C A26C G27A G44C C45A: the self-cleavage turned out to be 0.05.
For the variant A25G G29C A41C, the self-cleavage came out at 0.03.
As for A24C G36A A41G C42U G44U, the self-cleavage turned out to be 0.04.
Turning to C23U G40U C45U, the self-cleavage stood at 0.52.
As to A24G U32C G40A, the self-cleavage turned out to be 0.02.
Consider A24C A26C C42A, for which the self-cleavage came out at 0.11.
Turning to A25U G40U G44U, the self-cleavage was 0.04.
Consider A25C U32A C42U, for which the self-cleavage is 0.03.
As for A24U G40U C42A, the self-cleavage worked out at 0.08.
As for A25U G40U A41C G44A, the self-cleavage was determined as 0.03.
A24C U28A A39C: the self-cleavage is 0.13.
The result for A24G G27C U43G G44C reads 0.04.
As to A25C G33A G35C U38A, the self-cleavage was found to be 0.05.
Turning to A24U A26C U32G, the self-cleavage was 0.15.
Consider A25G G27U C31A, for which the self-cleavage was 0.11.
For A25C U34A A41C G44A C45A, the self-cleavage worked out at 0.
With A24G U28G G33A, the self-cleavage was 0.03.
As to A26C A39U G40C U43G, the self-cleavage came out at 0.1.
For A25C G27U C37U the value was 0.07.
Take A24C G29U G30U G36U C42A C45A: the self-cleavage came out at 0.03.
With A25G U32C G36U C42A G44A, the self-cleavage turned out to be 0.04.
On to A25U U43G C45A, for which the self-cleavage turned out to be 0.06.
A25G G29A A39C: the self-cleavage came to 0.21.
For the variant A25C G36C G44A, the self-cleavage came to 0.03.
With A24G G40C U43A, the self-cleavage was determined as 0.03.
On to A24G G33U G36A, for which the self-cleavage amounted to 0.07.
Regarding A25G G29U C37G C42G, the self-cleavage is 0.05.
For A24G G29A C37U A39U the value was 0.03; for A25C G29A G30U C37G U38C, 0.04.
For A25G C42G U43C, the self-cleavage came to 0.05.
Turning to A24U U28A C37U G40C C42U, the self-cleavage was found to be 0.01.
As for A25C G29C C46U, the self-cleavage came out at 0.02.
For the variant A24G C31A G35U, the self-cleavage is 0.
For A24C G29U G35C C42A, the self-cleavage amounted to 0.02.
Consider A24U A26U G36C G40U G44U, for which the self-cleavage came to 0.04.
Turning to A24C U34C G35U C46U, the self-cleavage came to 0.04.
With A24U G33C C37A A39G C45U, the self-cleavage worked out at 0.01.
Regarding A25U C31A U43G, the self-cleavage was found to be 0.
In the case of A25G G29C G40U, the self-cleavage came out at 0.15.
With A24G U32A G40A, the self-cleavage is 0.07.
Consider A24G G36U C37G, for which the self-cleavage stood at 0.02.
Turning to A24U G27A C31A, the self-cleavage came to 0.23.
Take C23U G33C U38A: the self-cleavage amounted to 0.04.
For A24U G40C G44C, the self-cleavage was found to be 0.06.
The result for A24U A26U G33C U38A A41U reads 0.03; that for A25U A26C G30C C42A, 0.05; that for A25G C42A G44A, 0.04.
Consider A25U G30U G35C, for which the self-cleavage came out at 0.04.
Regarding A24U G29C C31G C42A, the self-cleavage was determined as 0.14.
The result for A25G G35C G36A A41U reads 0.17; that for A25G U28A A41C, 0.04; that for A24U G29A G30U, 2.08.
Turning to A25U G27C C31U A39C, the self-cleavage came to 0.04.
For A24U G29U C37U G44U, the self-cleavage came to 0.
A25U C31G G35C G40A: the self-cleavage amounted to 0.05.
For A24G G29A C42A C45U, the self-cleavage was 0.4.
As for A25U C31A U32G G40C, the self-cleavage came out at 0.04.
Regarding A25C G27U U28G U43A, the self-cleavage amounted to 0.17.
For the variant A24U G27A U28A G35U, the self-cleavage was found to be 0.1.
With A24G G35U G36C, the self-cleavage was found to be 0.02.
As to A25U G33A G35A C42G C46G, the self-cleavage was 0.07.
As for A25C U28A G35C G44C, the self-cleavage stood at 0.06.
In the case of A25C C31G A41C, the self-cleavage was 0.01.
With A25G C31A U32C C45U, the self-cleavage is 0.11.
Consider A25U A26C C31U G33U A41U, for which the self-cleavage was 0.05.
Take A25G G35U C42U: the self-cleavage was determined as 0.18.
Regarding A24G G29A C45A, the self-cleavage was found to be 0.62.
As for A25G G29C C42A, the self-cleavage is 0.08.
Consider A24C G27A U43G G44U, for which the self-cleavage amounted to 0.05.
With A24C G36A A41U, the self-cleavage was 0.31.
For C23U U38G G40U the value was 0.02; for A24G A25C A39U, 0.07.
For the variant A24C U28C G40A, the self-cleavage came out at 0.01.
With A24C A25C C31A, the self-cleavage was 0.03.
For the variant A26C C31U C42A U43G G44U, the self-cleavage worked out at 0.07.
Turning to A24U G33C U34A G36U, the self-cleavage is 0.1.
On to A25U G30A A39G, for which the self-cleavage came out at 0.09.
C23U G33A G44U: the self-cleavage came to 0.09.
Regarding A24G G27C C31G G33A G36C, the self-cleavage amounted to 0.08.
The result for A25G G30A U38G C45G reads 0.02; that for C23U U28A U32A, 0.03; that for A24G G30C G36C, 0.02.
A24U A25G G30C G44U C46A: the self-cleavage was 0.01.
As for A25G G33U U34G C42A, the self-cleavage was 0.01.
The result for A25G C37U U38G reads 0.01; that for C23U G33C A41C, 0.05; that for A24G A25G G33A U43A, 0.02.
For A25C G27A C31U G35A U43C the value was 0.06; for A24G A25G U32A U38G G40A, 0.01.
For the variant A24C G35C G40U, the self-cleavage worked out at 0.02.
Regarding A24U A25C C42U G44U, the self-cleavage stood at 0.03.
As to A25U C37U U38A A39U, the self-cleavage came out at 0.07.
For A25G C31A A39U G44C the value was 0.01.
For the variant A24G G27A G29U C31A, the self-cleavage is 0.46.
For the variant C23U G35A A41C, the self-cleavage is 0.09.
Turning to A24C G30U U32C A41G, the self-cleavage amounted to 0.08.
As to A25U G27C G35C C37G C42A, the self-cleavage was found to be 0.04.
As to A24G A26C A41C, the self-cleavage came out at 0.05.
A25C G40C C42U: the self-cleavage is 0.01.
As for A25U U38A A39U, the self-cleavage amounted to 0.27.
A25C C31A C37A C46A: the self-cleavage was determined as 0.01.
For A24C G33U G40A the value was 0.06; for A24G G40C G44C C45U C46A, 0.05.
Regarding A24U G33A U43C, the self-cleavage came to 0.
Regarding A25G A26U C37U, the self-cleavage is 0.03.
With A25C G29U G40A, the self-cleavage came out at 0.04.
Regarding A24C A26C A41U, the self-cleavage was found to be 0.07.
Consider A24G G30A G33A, for which the self-cleavage was 0.19.
Take A25U G30A G35C G44U: the self-cleavage came out at 0.01.
For A25G A26C G27U G35A G40U the value was 0.23; for A25U G27U G40A G44C, 0.03.
For A25U U32A G36U, the self-cleavage was found to be 0.03.
As for A25C G40C C45G, the self-cleavage was 0.03.
For A25G U28C G29U G44U the value was 0.02.
On to A25C G33A U38C C45A, for which the self-cleavage stood at 0.03.
With C23U U32G U38A A41C, the self-cleavage came out at 0.
For A25G G33U C45G, the self-cleavage was 0.01.
A25U G35U U38C U43G C46U: the self-cleavage is 0.04.
Take A24U U32C U43G C46A: the self-cleavage came to 0.02.
On to A24G G29C U38C, for which the self-cleavage came out at 0.11.
With C23U G36A G40C C42A U43A, the self-cleavage was found to be 0.09.
For C23U U34G C42G the value was 0.01; for A25G G33A C45U, 0.01.
